From PubChem BioAssay AID1508624 (National Center for Advancing Translational Sciences (NCATS), 2021)
The whole screen tested about 48,000 compounds, of which about 120 (0.25%) were called active. Another 4% or so got no clear call; they are omitted. Calls follow the shape of the dose curve; as a rule, active = well fitted activation curve with a large enough effect; inconclusive = small, poorly fitted or top-dose-only effect, or another doubt; inactive = no such curve, though single readings can be large or run the other way. The list shows a part of the results.

Assay: Primary qHTS for Identification of Small Molecule Activators of Huntingtin-Antisense Promoter Activity; also: nearly all actives have a fitted effect of over 55% in size
Conditions: HEK293 HTT-AS promoter firefly luciferase reporter (activity 0% = vehicle and -100% = no light), 24 h; series mostly up to 57.5 µM; activity change, positive = activation: at the top concentration
Procedure, shortened: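 Luminescence was read after Dual-Glo reagent and a 10 min room-temperature incubation. Values were normalized to vehicle (0% activity) and zero RLU (-100% activity). Reporter HEK293 cells had been exposed to compounds (up to 57.5 uM final) for 24 h.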

Activity change, positive = activation, inactive:
CCCCOc1ccc(C(=O)Nc2nnc3n2CCS3)cc1 -4.15%
O=C(Nc1cccc(C(=O)OCc2cc(=O)n3nc(C4CC4)sc3n2)c1)c1ccccc1 0%
Cc1cc(C)cc(OC(C)C(=O)Nc2nonc2-c2ccc(Br)cc2)c1 (configuration not stated) -18.5%
Cc1ccccc1NC(=O)CSc1nnc(C)c(=O)[nH]1 -3.39%
O=C(NCc1ccco1)C1CCN(C(=O)N2CCOc3ccccc32)CC1 -2.44%
CCOc1cccc(CNC(=O)c2ccc(N3CCCC3)c(NC(=O)NCc3ccc(F)cc3)c2)c1 -8.03%
Cc1ccc(Cl)cc1N(C)C(=O)Cn1nc(Cc2cccnc2)c2ccccc2c1=O -30%
CCN(CC)CCOC(=O)c1ccc(NC(=O)Cn2ncc3c([nH]c4ccc(C)cc43)c2=O)cc1 -20.2%
COCCn1c(CNC(=O)c2ccc(C)cc2)nc2cccnc21 4.31%
Cc1ccc(-n2nc(C)c(C(=O)NCCCN3CCN(c4ccc(F)cc4)CC3)c2-n2cccc2)cc1 -52.7%
Cc1ccccc1CS(=O)(=O)CC1Nc2ccc(C(=O)NCc3ccc(Cl)cc3)cc2NC1=O (configuration not stated) -12.7%
CCOc1ccc(-c2nonc2NC(=O)c2oc3c(C)c(C)ccc3c2C)cc1OCC -14%
Cc1ccc(C)c(Cn2c3ccccc3c3cnn(CC(=O)NCCCc4ccccc4)c(=O)c32)c1 -9.52%
CCOc1cc(C(=O)N2CC(=O)Nc3ccc(C)cc3C2c2ccccc2)cc(OCC)c1OCC (configuration not stated) -2.69%
COc1ccc(N2CCN(c3oc(/C=C/c4ccc(F)cc4)nc3C#N)CC2)cc1 0.701%
COCCCNC(=O)CSC1=Nc2ccccc2C2=NC(CCC(=O)NCc3ccccc3OC)C(=O)N12 (configuration not stated) -7.21%
CCc1ccc(CN(Cc2ccco2)C(=O)c2ccc(OC)cc2)cc1 -14.6%
CCc1ccc(CNC(=O)CCC(=O)N2Cc3cccc(OC)c3Oc3ncccc32)cc1 -9.82%
COC(=O)c1cccnc1 -2.74%
COc1ccc(NC(=O)CCN2CCN(CCO)CC2)cc1 -16.8%
CCN(c1cc(C)cc(C)c1)S(=O)(=O)c1nnc(NC(=O)c2ccco2)s1 -31%
COc1ccc2[nH]cc(CCNC(=O)c3cnn(-c4ccccc4Cl)c3C3CCN(C(=O)OC(C)(C)C)CC3)c2c1 -47.6%
O=C(O)CCCCC(=O)O -0.502%
Cc1nc2c(C(=O)NCCc3ccccc3)c[nH]n2c(=O)c1Cc1ccc(F)cc1Cl -29.5%
Cc1ccc(NC(=O)Cn2nnc(-c3nc(-c4ccc(Cl)cc4)no3)c2N)cc1C 6.63%
Cc1ccc(Nc2sc(C(=O)c3ccccc3)c(N)c2S(=O)(=O)c2ccccc2)c(C)c1 -21.5%
COc1ccccc1N1CCN(C(=O)Cn2c(=O)n3nc(-c4cccc(C)c4)nc3c3ccccc32)CC1 -2.12%
COc1ccc(CCNC(=O)c2c(C)nn(-c3ccc(F)cc3)c2-n2cccc2)c(OC)c1OC -35.3%
CCCSc1ncc(Cl)c(C(=O)Nc2c(C(=O)c3ccc(F)cc3)oc3ccccc23)n1 -8.22%
COc1ccc(-n2ncc(C(=O)Nc3ccc4c(c3)OCCO4)c2C2CCN(C(=O)OC(C)(C)C)CC2)cc1 -41.9%
CCOc1ccc(CNC(=O)C2CCCN(S(=O)(=O)N(CC)c3ccc(OCC)cc3)C2)cc1 (configuration not stated) -51.6%
CCN(C(=O)Cn1nc(Cc2ccncc2)c2ccccc2c1=O)c1cccc(C(F)(F)F)c1 -13.7%
CC(C)Cn1c(=O)c2ccccc2n2c(CCC(=O)Nc3ccc(F)c(F)c3)nnc12 1.1%
Cc1ccc(S(=O)(=O)N2CCC(C(=O)Nc3ccc(Oc4ccccc4)cc3)CC2)cc1 -8.79%
O=C(NCCc1ccccc1)c1ccc2c(c1)CCN2S(=O)(=O)c1ccccc1 8.68%
CC(C)CSc1ccccc1NC(=O)c1sc2nc(-c3ccncc3)ccc2c1N -14.1%
CCOC(=O)c1c(NC(=O)C(C)Oc2ccc(Cl)c(C)c2)sc2c1CCCC2 (configuration not stated) -8.84%
Cc1cc(C)cc(NC(=O)CN2C(=O)CCc3cc(S(=O)(=O)N4CCCCC4)ccc32)c1 -28.6%
O=C(Cn1cc(S(=O)(=O)Cc2ccccc2F)c2ccccc21)NCc1ccccc1Cl -12.3%
Cc1nn2c(=O)cc(COC(=O)c3ccc(NC(=O)c4cccs4)cc3)nc2s1 -53.7%
CCc1ccc(NC(=O)CCCn2nc(C)c3c(C)n(-c4ccccc4)nc3c2=O)cc1 0.531%
CC(C)CC(C(=O)NCCc1ccccc1)N1Cc2ccccc2C1=O (configuration not stated) -12.8%
CCCSc1nnc2n(-c3ccc(OC)cc3)c(=O)c3c4c(sc3n12)COC(C(C)C)C4 (configuration not stated) 3.74%
CC(O)C(=O)O (configuration not stated) 0.907%
Cc1nn(C(C)(C)C)c(OC(=O)c2cccc(F)c2)c1Sc1ccccc1 -21.8%
CN(C)CCOC(c1ccccc1)c1ccccc1
CCOc1ccc(CNC(=O)C2CCN(Cc3cc4ccccc4n3Cc3ccccc3C)CC2)cc1 -17.1%
CC(=O)Nc1ccc2nc(SCCOc3ccccc3)sc2c1 16.4%
C[C@H]1C[C@@H]2[C@@H]([C@@H](O)C[C@@]3(C)[C@H]2CC[C@]3(O)C(=O)CO)[C@@]2(C)C=CC(=O)C=C12 -20.3%
Cc1ccc(NC(=O)C(=O)NCCCN2CCOCC2)cc1C 2.02%
Cc1cccc(NC(=O)C2(C)Cc3ccccc3C(=O)O2)c1 (configuration not stated) -5.09%
Cc1c(CNC2CCCCCC2)c(C(=O)O)c(C)n1Cc1ccc(F)cc1 -18.8%
CCc1ccc(CN(Cc2ccco2)C(=O)COc2ccc(Cl)cc2C)cc1 -27.9%
Cc1ccc(OCC(=O)Nc2cc(-c3cccc(C)c3)nn2-c2ccccc2)cc1 27.7%
CCOc1ccccc1C(=O)Nc1cc2c(cc1N1CCOCC1)n(C)c(=O)n2C -8.47%
Cc1ccc(CCNC(=O)c2ccc3c(c2)c(C)c(C)n3Cc2ccccc2)cc1 -26.1%
Cc1ccc2nc(N(Cc3cccnc3)C(=O)c3cccs3)sc2c1 19.3%
NC(=S)N/N=C/c1cccnc1 -1.95%
CCCn1c(CCC(=O)Nc2cccc(CC)c2)nc2cccnc21 -25.6%
COc1ccc(-n2c(=O)c3sc4ccccc4c3n(CC(=O)NCc3ccccc3)c2=O)cc1 -2.63%
Cc1ccccc1CNC(=O)c1ccc(CS(=O)Cc2ccc(Cl)cc2)o1 (configuration not stated) -20%
O=[N+]([O-])c1cc(-c2nc(-c3ccccc3)no2)ccc1NCCc1ccccc1 -6.92%
CCOc1ccc(N2CC(c3nc4ccccc4n3Cc3cccc(C)c3)CC2=O)cc1 (configuration not stated) -22%
CCn1c(CC2C(=O)N(C)c3ccccc32)nc2ccccc2c1=O (configuration not stated) 5.57%
O=C(Nc1cccc(F)c1)[C@@H](c1ccccc1)N1Cc2ccccc2C1=O -13.4%
COc1ccc(Cl)cc1NC(=O)CSc1nc(-c2ccccc2)c2ccccc2n1 -5.28%
COc1cccc(-c2nc(SCC(=O)NC3CCCC3)c(-c3ccc(F)cc3)[nH]2)c1 -28.2%
CC1CCN(S(=O)(=O)c2ccc3nc(Nc4cccc(C(F)(F)F)c4)ccc3c2)CC1 -37.8%
CC(C)c1ccc(/C=C(\C#N)c2nc(-c3cc4ccccc4oc3=O)cs2)cc1 6.72%
CCOc1ccccc1NC(=O)C1=C(C)Nc2ncnn2C1c1ccccn1 (configuration not stated) -9.54%
CCOC(=O)CCn1cnc2onc(-c3ccccc3Cl)c2c1=O 7.62%
COC(=O)c1ccc(Nc2ncnc3c2cnn3-c2ccccc2)cc1 -2.03%
COc1cc(Cl)c(C)cc1NS(=O)(=O)c1c(C)nc2sccn2c1=O -18.3%
COc1ccc(C2=C(C)C(=O)N(Cc3ccc(C(=O)Nc4ccc(C)c(C)c4)cc3)S2(=O)=O)cc1 -17.9%
O=C(CCCCCCCCC#CI)Oc1ccccc1 -18.9%
COc1ccc(NC(=O)CN(c2ccccc2OC)S(C)(=O)=O)c(OC)c1 -4.28%
COc1cc(NC(=O)CCc2c(C)nc3c4c(C)cc(C)nc4nn3c2C)cc(OC)c1 -0.707%
Cc1cc(C)cc(NC(=O)CCCn2nc(C)c3c(C)n(-c4ccccc4)nc3c2=O)c1 -12.5%
COc1cc(-c2nnc(SCC(=O)Oc3ccc(C)cc3C)o2)cc(OC)c1OC -0.103%
Cc1ccc(CNC(=O)c2nc(S(=O)(=O)Cc3ccc(C)cc3)ncc2Cl)cc1 -17.8%
CCOC(=O)C1(C)C=C(Nc2cccc(C)c2)C(=O)N1c1ccccc1 (configuration not stated) -22.3%
O=C(NCc1ccccc1)N1CCc2c(sc3c2CCCC3)C1c1ccccc1 (configuration not stated) -16.2%
COC(=O)c1ccc2c(=O)n(CCCCCC(=O)NC(C)C)c(=O)[nH]c2c1 -61.6%
Cc1cc(C)cc(NC(=O)CCS(=O)(=O)c2ccc3c(c2)oc(=O)n3C)c1 -5.4%
Cc1ccc(Cl)cc1NC(=O)N1CCc2cc(S(=O)(=O)N3CCC(C)CC3)ccc21 1.26%
CCOc1ccc(C(=O)Nc2ccc3nc(SCC(=O)N(C)c4ccccc4)sc3c2)cc1 -50.7%
CCOC(=O)c1cc(-c2ccc(OC)cc2)n(CCC(=O)Nc2ccc(OC)cc2OC)c1C -32.4%
COc1ccccc1CNC(=O)c1ccc(Nc2nc3ccccc3n3nnnc23)cc1 -1.2%
CCOc1ccc(/C=C/c2nc3ccccc3n2S(=O)(=O)c2cccc(Cl)c2)cc1 -55%
CCc1ccccc1-n1c2c(cc(-c3nc(-c4ccc(Cl)cc4)cs3)c1=O)C(=O)CC(C)(C)C2 -17%
COc1ccc(Cc2nc3ccc(C(=O)NCCc4ccccc4)cc3o2)cc1 -37.3%
CCOC(=O)c1c(C)[nH]c(C)c1S(=O)(=O)N1CCN(c2ccc(Cl)cc2)CC1 -21.8%
CC(=O)N1c2ccc(S(=O)(=O)NCC3CCC(C(=O)Nc4ccc(F)cc4)CC3)cc2CC1C (configuration not stated) -32.6%
O=C(COc1ccc(F)cc1)NC1CC(=O)N(c2ccc3c(c2)OCCO3)C1 (configuration not stated) -9.6%
COc1cccc(NC(=O)C2CCN(c3cc(C)nc4c(-c5ccc(Cl)cc5)c(C)nn34)CC2)c1 -17.5%
Cc1ccc(-c2nn3c(=O)cc(CN4CCN(S(=O)(=O)c5ccc(Cl)cc5)CC4)nc3s2)cc1 -13.2%
COc1ccc(CNC(=O)c2ccc3c(c2)CCN3S(=O)(=O)c2ccc(Cl)cc2)cc1 -14.5%
